Among the data in PMC9911399, “Two distinct binding modes provide the RNA-binding protein RbFox with extraordinary sequence specificity” are binding signal values, retold here.

Where a chain is given by its changes, count along the chain named. This is one part of the list.

The chains are these.
B1: CAGAAGC (DNA:RNA)
RNA: GGGAGACCGGAAUUCAGAUUGUCCCAGAAGCUUAAAUCCCGUCGUAGCCACCA
DNA 1: CAATCTGAATTCCGGTCTCCC
DNA 2: TGGTGGCTACGACGGGATT
B2: UGUACAU (DNA:RNA)
RNA: B1 RNA with C25U, A26G, G27U, A29C, G30A, C31U
DNA 1: CAATCTGAATTCCGGTCTCCC
DNA 2: TGGTGGCTACGACGGGATT
B3: UUGAUGC (DNA:RNA)
RNA: B1 RNA with C25U, A26U, A29U
DNA 1: CAATCTGAATTCCGGTCTCCC
DNA 2: TGGTGGCTACGACGGGATT
B4: CGCCUAU (DNA:RNA)
RNA: B1 RNA with A26G, G27C, A28C, A29U, G30A, C31U
DNA 1: CAATCTGAATTCCGGTCTCCC
DNA 2: TGGTGGCTACGACGGGATT
B5: UAUCAGU (DNA:RNA)
RNA: B1 RNA with C25U, G27U, A28C, C31U
DNA 1: CAATCTGAATTCCGGTCTCCC
DNA 2: TGGTGGCTACGACGGGATT
B6: CGAAAAC (DNA:RNA)
RNA: B1 RNA with A26G, G27A, G30A
DNA 1: CAATCTGAATTCCGGTCTCCC
DNA 2: TGGTGGCTACGACGGGATT
B7: GUGACAC (DNA:RNA)
RNA: B1 RNA with C25G, A26U, A29C, G30A
DNA 1: CAATCTGAATTCCGGTCTCCC
DNA 2: TGGTGGCTACGACGGGATT
B8: GGAACCG (DNA:RNA)
RNA: B1 RNA with C25G, A26G, G27A, A29C, G30C, C31G
DNA 1: CAATCTGAATTCCGGTCTCCC
DNA 2: TGGTGGCTACGACGGGATT
B9: CAUCUUG (DNA:RNA)
RNA: B1 RNA with G27U, A28C, A29U, G30U, C31G
DNA 1: CAATCTGAATTCCGGTCTCCC
DNA 2: TGGTGGCTACGACGGGATT
B10: AGAUUCG (DNA:RNA)
RNA: GGGAGACCGGAAUUCAGAUUGUCCAGAUUCGUUAAAUCCCGUCGUAGCCACCA
DNA 1: CAATCTGAATTCCGGTCTCCC
DNA 2: TGGTGGCTACGACGGGATT
B11: AUGGCCU (DNA:RNA)
RNA: B10 RNA with G26U, A27G, U28G, U29C, G31U
DNA 1: CAATCTGAATTCCGGTCTCCC
DNA 2: TGGTGGCTACGACGGGATT
B12: UUCGAAA (DNA:RNA)
RNA: B1 RNA with C25U, A26U, G27C, A28G, G30A, C31A
DNA 1: CAATCTGAATTCCGGTCTCCC
DNA 2: TGGTGGCTACGACGGGATT
B13: UUCCCCG (DNA:RNA)
RNA: B10 RNA with A25U, G26U, A27C, U28C, U29C
DNA 1: CAATCTGAATTCCGGTCTCCC
DNA 2: TGGTGGCTACGACGGGATT
B14: AAGGCGG (DNA:RNA)
RNA: B1 RNA with C25A, A28G, A29C, C31G
DNA 1: CAATCTGAATTCCGGTCTCCC
DNA 2: TGGTGGCTACGACGGGATT
B15: GAUUGCA (DNA:RNA)
RNA: B10 RNA with A25G, G26A, A27U, U29G, G31A
DNA 1: CAATCTGAATTCCGGTCTCCC
DNA 2: TGGTGGCTACGACGGGATT
B16: GUACGCU (DNA:RNA)
RNA: B10 RNA with A25G, G26U, U28C, U29G, G31U
DNA 1: CAATCTGAATTCCGGTCTCCC
DNA 2: TGGTGGCTACGACGGGATT
B17: CCCCAGA (DNA:RNA)
RNA: B1 RNA with A26C, G27C, A28C, C31A
DNA 1: CAATCTGAATTCCGGTCTCCC
DNA 2: TGGTGGCTACGACGGGATT
B18: ACCUCUU (DNA:RNA)
RNA: B10 RNA with G26C, A27C, U29C, C30U, G31U
DNA 1: CAATCTGAATTCCGGTCTCCC
DNA 2: TGGTGGCTACGACGGGATT
B19: GAUAAUC (DNA:RNA)
RNA: B1 RNA with C25G, G27U, G30U
DNA 1: CAATCTGAATTCCGGTCTCCC
DNA 2: TGGTGGCTACGACGGGATT
B20: UGGCCAA (DNA:RNA)
RNA: B10 RNA with A25U, A27G, U28C, U29C, C30A, G31A
DNA 1: CAATCTGAATTCCGGTCTCCC
DNA 2: TGGTGGCTACGACGGGATT
B21: UAGAAUA (DNA:RNA)
RNA: B1 RNA with C25U, G30U, C31A
DNA 1: CAATCTGAATTCCGGTCTCCC
DNA 2: TGGTGGCTACGACGGGATT
B22: GCCGGAC (DNA:RNA)
RNA: B1 RNA with C25G, A26C, G27C, A28G, A29G, G30A
DNA 1: CAATCTGAATTCCGGTCTCCC
DNA 2: TGGTGGCTACGACGGGATT
B23: AACCCGG (DNA:RNA)
RNA: B10 RNA with G26A, A27C, U28C, U29C, C30G
DNA 1: CAATCTGAATTCCGGTCTCCC
DNA 2: TGGTGGCTACGACGGGATT
B24: GCCGUAC (DNA:RNA)
RNA: B10 RNA with A25G, G26C, A27C, U28G, C30A, G31C
DNA 1: CAATCTGAATTCCGGTCTCCC
DNA 2: TGGTGGCTACGACGGGATT
B25: AAGCAUU (DNA:RNA)
RNA: B1 RNA with C25A, A28C, G30U, C31U
DNA 1: CAATCTGAATTCCGGTCTCCC
DNA 2: TGGTGGCTACGACGGGATT
B26: GAGCGUG (DNA:RNA)
RNA: B1 RNA with C25G, A28C, A29G, G30U, C31G
DNA 1: CAATCTGAATTCCGGTCTCCC
DNA 2: TGGTGGCTACGACGGGATT
B27: CUAGCCG (DNA:RNA)
RNA: B10 RNA with A25C, G26U, U28G, U29C
DNA 1: CAATCTGAATTCCGGTCTCCC
DNA 2: TGGTGGCTACGACGGGATT
B28: GACAGGU (DNA:RNA)
RNA: B1 RNA with C25G, G27C, A29G, C31U
DNA 1: CAATCTGAATTCCGGTCTCCC
DNA 2: TGGTGGCTACGACGGGATT
B29: GACCUCU (DNA:RNA)
RNA: B10 RNA with A25G, G26A, A27C, U28C, G31U
DNA 1: CAATCTGAATTCCGGTCTCCC
DNA 2: TGGTGGCTACGACGGGATT
B30: ACCCAUG (DNA:RNA)
RNA: B10 RNA with G26C, A27C, U28C, U29A, C30U
DNA 1: CAATCTGAATTCCGGTCTCCC
DNA 2: TGGTGGCTACGACGGGATT
B31: GGAUCAA (DNA:RNA)
RNA: B10 RNA with A25G, U29C, C30A, G31A
DNA 1: CAATCTGAATTCCGGTCTCCC
DNA 2: TGGTGGCTACGACGGGATT

The assay addresses T1, RBFOX1 RRM (Homo sapiens, UniProt Q9NWB1 109-208).
T1 sequence: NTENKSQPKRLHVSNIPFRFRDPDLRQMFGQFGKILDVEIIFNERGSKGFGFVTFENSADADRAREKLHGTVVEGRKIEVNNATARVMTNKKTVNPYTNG
The assay is described as follows: EMSA; HiTS-Eq, 1 nM pool, 10 min; buffer printed only for the single-RNA assays: 10 mM Tris pH 7.5, 150 mM NaCl, 3.4 mM EDTA, 0.001% NP-40, 30 C. The conditions noted are these: tags: His6 N-terminal (pET28a); label: 5' 32P. In outline: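 Purified RbFox RRM, wild type or mutant, was incubated for 10 min in 50 µL with 1 nM of a 5′-radiolabelled RNA pool carrying 7 randomized nucleotides, whose flanks were annealed to DNA oligonucleotides, over a series of increasing protein concentrations. Unbound RNA was resolved on 8% native PAGE, cut out, reverse-transcribed, barcoded by PCR and sequenced on an Illumina HiSeq 2500. Relative association constants were derived from changes in read counts for each RNA species versus the control reaction and normalised to the cognate motif.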
B1: the binding signal was 0.00454 KA relative to UGCAUGU. On to B2, for which the binding signal was 0.00935 KA relative to UGCAUGU. As to B3, the binding signal is 0.0187 KA relative to UGCAUGU. In the case of B4, the binding signal was 0.0034 KA relative to UGCAUGU. In the case of B5 it was 0.0105 KA relative to UGCAUGU; in that of B6, 0.00128 KA relative to UGCAUGU; in that of B7, 0.00858 KA relative to UGCAUGU.

As for B8, the binding signal was 0.0141 KA relative to UGCAUGU. In the case of B9 it was 0.00714 KA relative to UGCAUGU; in that of B10, 0.012 KA relative to UGCAUGU; in that of B11, 0.0136 KA relative to UGCAUGU. In the case of B12, the binding signal was 0.0104 KA relative to UGCAUGU. For B13, the binding signal is 0.00506 KA relative to UGCAUGU. Regarding B14, the binding signal was 0.014 KA relative to UGCAUGU.

As for B15, the binding signal was 0.0277 KA relative to UGCAUGU. Consider B16, for which the binding signal is 0.00959 KA relative to UGCAUGU.

Turning to B17, the binding signal is 0.0107 KA relative to UGCAUGU. As for B18, the binding signal is 0.0014 KA relative to UGCAUGU. With B19, the binding signal is 0.00765 KA relative to UGCAUGU. Take B20: the binding signal was 0.011 KA relative to UGCAUGU.

As to B21, the binding signal was 0.00474 KA relative to UGCAUGU. Take B22: the binding signal was 0.0111 KA relative to UGCAUGU.

As to B23, the binding signal was 0.00503 KA relative to UGCAUGU.

Consider B24, for which the binding signal is 0.0108 KA relative to UGCAUGU. For B25, the binding signal was 0.00706 KA relative to UGCAUGU.

For the molecule B26, the binding signal is 0.0308 KA relative to UGCAUGU. Regarding B27, the binding signal is 0.00693 KA relative to UGCAUGU.

As for B28, the binding signal was 0.013 KA relative to UGCAUGU. Take B29: the binding signal is 0.00768 KA relative to UGCAUGU. Take B30: the binding signal was 0.00196 KA relative to UGCAUGU.

For the molecule B31, the binding signal was 0.00525 KA relative to UGCAUGU.
